The record followed here is PubChem BioAssay AID2202238 (Ras Initiative Chemistry Research Team, Frederick National …, 2025).

Structures are written as SMILES. The list shows a part of the results. Shown are side measurements of this screen, not its main read-out; they come without a call.

In the assay the target is GTPase KRas (Homo sapiens) (UniProt P01116). Description: Covalent labelling of cysteine mutants by fragments, read by mass spectrometry (AID 2202238). More on the design: protein at 5 µM with 500 µM competing thiol for 1.5 h. As to conditions: KRAS G12D cysteine mutants, disulfide tethering, MALDI-TOF labeling, stronger effect = higher value, fragment at 500 µM.
[1] abbreviates: measured here: G60C mutant labeling.
[2] abbreviates: measured here: G75C mutant labeling.
Where [3] appears, read: measured here: H94C mutant labeling.
[4] abbreviates: measured here: I36C mutant labeling.
Where [5] appears, read: measured here: L120C mutant labeling.
[6] abbreviates: measured here: M67C mutant labeling.
The mark [7] stands for this setting: measured here: M72C mutant labeling.
The mark [8] stands for this setting: measured here: N26C mutant labeling.
Setting [9] is: measured here: N86C mutant labeling.
Where [10] appears, read: measured here: P121C mutant labeling.
The mark [11] stands for this setting: measured here: S122C mutant labeling.
The mark [12] stands for this setting: measured here: S136C mutant labeling.

Chain of UniProt P01116 (P01116 whole entry, looked up, the tested form may be a part): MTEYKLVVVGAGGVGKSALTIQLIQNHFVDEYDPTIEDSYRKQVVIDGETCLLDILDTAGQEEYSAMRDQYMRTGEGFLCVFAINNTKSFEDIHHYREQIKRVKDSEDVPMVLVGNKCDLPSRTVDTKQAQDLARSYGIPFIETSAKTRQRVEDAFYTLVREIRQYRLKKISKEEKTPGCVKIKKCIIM

For `O=C(CCNC(=O)Nc1ccc(Br)cc1)NCCS`, the percent labeling is, setting by setting: under setting [1], 18.6%; under setting [2], 4.5%; under setting [3], 19.3%; under setting [4], 6.2%; under setting [5], 6.1%; under setting [6], 7.8%. The compound also showed a percent labeling under setting [7] of 9.6%; a percent labeling under setting [8] of 24.5%; a percent labeling under setting [9] of 5.2%; a percent labeling under setting [10] of 5.6%; a percent labeling under setting [11] of 3.2%; a percent labeling under setting [12] of 9.6%.
Take `NC(=O)c1cn(C2CN(C(=O)CCS)C2)nn1`: the percent labeling runs as follows: under setting [2], 6.6%; under setting [3], 18.7%; under setting [4], 30.5%; under setting [5], 20.7%; under setting [6], 29.9%; under setting [7], 13.1%. In addition, the percent labeling is, setting by setting: under setting [9], 17.2%; under setting [10], 30.2%; under setting [11], 27.3%; under setting [12], 38.7%.
`Cc1c(Br)cc(C(=O)NCCS)c(=O)n1C`: the percent labeling reads like this: under setting [1], 47%; under setting [2], 21.8%; under setting [3], 33%; under setting [4], 24.2%; under setting [5], 34.5%; under setting [6], 37.7%. For the same compound, the percent labeling runs as follows: under setting [7], 73.4%; under setting [8], 37.8%; under setting [9], 20.4%; under setting [10], 21.3%; under setting [11], 21.4%; under setting [12], 48%.
With `O=C(NCCS)c1nn(-c2cc(Cl)ccc2F)c2c1CCC2`, the percent labeling worked out at 19% under setting [1]; 14% under setting [2]; 14.4% under setting [3]; 6.6% under setting [4]; 11% under setting [5]; 6.6% under setting [6]. This compound returned a percent labeling under setting [7] of 34.6%; a percent labeling under setting [8] of 16.8%; a percent labeling under setting [9] of 5.5%; a percent labeling under setting [10] of 8.7%; a percent labeling under setting [11] of 4.2%; a percent labeling under setting [12] of 9.7%.
Turning to `O=C(CCS)N1CCC2(CC1)Cc1ccccc1NC2=O`, the percent labeling by setting is: under setting [2], 20.2%; under setting [3], 37.3%; under setting [4], 54.3%; under setting [5], 40%; under setting [6], 54.8%; under setting [7], 40.4%. The percent labeling reads like this: under setting [9], 28.6%; under setting [10], 33.5%; under setting [11], 31.5%; under setting [12], 73.2%.
For the compound `CCn1cc(-c2cc(C(F)(F)F)n(CCCNC(=O)CCS)n2)cn1`, the percent labeling by setting is: under setting [2], 14.4%; under setting [3], 23.2%; under setting [4], 21.4%; under setting [5], 19.4%; under setting [6], 17.9%; under setting [7], 27.4%. In addition, the percent labeling stood at 21% under setting [9], 24.5% under setting [10], 21.9% under setting [11] and 36.5% under setting [12].
For `O=C(CCS)NC1CCN(CCOc2ccc(Cl)cc2)CC1`, the percent labeling by setting is: under setting [2], 16.2%; under setting [3], 34%; under setting [4], 52.1%; under setting [5], 22.4%; under setting [6], 39.4%; under setting [7], 22.9%. Besides, the percent labeling reads like this: under setting [9], 25.7%; under setting [10], 26%; under setting [11], 18%; under setting [12], 41.9%.
For the compound `Cc1ccc(-n2ncc(NC(=O)CCS)c2C)cc1`, the percent labeling came to 11.6% under setting [2]; 31.1% under setting [3]; 22.7% under setting [4]; 29.3% under setting [5]; 27.2% under setting [6]; 39.7% under setting [7]. In addition, the percent labeling runs as follows: under setting [9], 18%; under setting [10], 25.9%; under setting [11], 27.3%; under setting [12], 40.4%.
Regarding `O=C(NCCS)C1(c2c(Cl)cccc2Cl)CCC1`, the percent labeling worked out at 55.6% under setting [1]; 20.7% under setting [2]; 27.2% under setting [3]; 15.9% under setting [4]; 27.8% under setting [5]; 20.4% under setting [6]. The same compound gave a percent labeling under setting [7] of 58.3%; a percent labeling under setting [8] of 28.2%; a percent labeling under setting [9] of 16.2%; a percent labeling under setting [10] of 19.8%; a percent labeling under setting [11] of 13.8%; a percent labeling under setting [12] of 26.2%.
For `O=C(NCCS)c1ccc(CN2C(=O)CNC2=O)cc1`, the percent labeling amounted to 26.7% under setting [1]; 19.3% under setting [2]; 35.5% under setting [3]; 25.1% under setting [4]; 39.4% under setting [5]; 35% under setting [6]. Besides, the percent labeling reads like this: under setting [7], 47.6%; under setting [8], 46.5%; under setting [9], 37.6%; under setting [10], 25.7%; under setting [11], 36.4%; under setting [12], 45.1%.
Take `O=C(NCCS)c1csc(-c2cccc3ccccc23)n1`: the percent labeling is 21.1% under setting [1]; 9.1% under setting [2]; 13.7% under setting [3]; 8% under setting [4]; 12.3% under setting [5]; 11% under setting [6]. In addition, the percent labeling is, setting by setting: under setting [7], 39.8%; under setting [8], 24.7%; under setting [9], 12.2%; under setting [10], 12.4%; under setting [11], 6.3%; under setting [12], 12.6%.
As for `O=C(CCS)NC1CC(Cn2ccnn2)C1` (centres undefined), the percent labeling turned out to be 11.1% under setting [2]; 24.8% under setting [3]; 39.5% under setting [4]; 24.9% under setting [5]; 30.8% under setting [6]; 17.1% under setting [7]. The percent labeling was 30.2% under setting [9], 41.2% under setting [10], 36.6% under setting [11] and 53.1% under setting [12].
With `O=C(NCCS)c1sc(N2CCOCC2)nc1Cl`, the percent labeling came to 27% under setting [1]; 23.7% under setting [2]; 21.2% under setting [3]; 19.5% under setting [4]; 21.5% under setting [5]; 25.5% under setting [6]. In addition, the percent labeling runs as follows: under setting [7], 62.8%; under setting [8], 36.3%; under setting [9], 14.8%; under setting [10], 16.2%; under setting [11], 17.5%; under setting [12], 37.4%.
Take `Cc1c(C(=O)NCCS)nnn1-c1ccc(F)cc1`: the percent labeling was determined as 29.1% under setting [1]; 14.6% under setting [2]; 21.2% under setting [3]; 16.4% under setting [4]; 22.6% under setting [5]; 17.8% under setting [6]. Moreover, the percent labeling under setting [7] amounted to 50.7%; the percent labeling under setting [8] was determined as 39.5%; the percent labeling under setting [9] was determined as 18.3%; the percent labeling under setting [10] stood at 20.8%; the percent labeling under setting [11] is 17.6%; the percent labeling under setting [12] came to 24.9%.
In the case of `O=C(NCCS)c1coc(-c2c(F)cccc2F)n1`, the percent labeling came out at 24.4% under setting [1]; 13.9% under setting [2]; 20.2% under setting [3]; 16.2% under setting [4]; 31.2% under setting [5]; 18.9% under setting [6]. Besides, the percent labeling stood at 42.6% under setting [7]; 29.5% under setting [8]; 16.2% under setting [9]; 26% under setting [10]; 17.7% under setting [11]; 28.8% under setting [12].
Consider `CC1(C)Cc2occc2CN(C(=O)CCS)C1`, for which the percent labeling under setting [2] was 21.1%; the percent labeling under setting [3] amounted to 44.5%; the percent labeling under setting [4] stood at 31.3%; the percent labeling under setting [5] was 28.6%; the percent labeling under setting [6] was found to be 34.8%; the percent labeling under setting [7] was determined as 68.2%. Moreover, the percent labeling reads like this: under setting [9], 33.4%; under setting [10], 34.8%; under setting [11], 35.6%; under setting [12], 61.7%.
For `O=C(CCS)N1CCC(c2c[nH]c3ccc(F)cc23)CC1`, the percent labeling worked out at 24.7% under setting [2]; 25% under setting [3]; 28.6% under setting [4]; 15.3% under setting [5]; 37.5% under setting [6]; 45.6% under setting [7]. In addition, the percent labeling by setting is: under setting [9], 18.2%; under setting [10], 19.2%; under setting [11], 12.8%; under setting [12], 28.9%.
As for `COc1cc(CNC(=O)CCS)ccc1OCc1cccnc1`, the percent labeling was 13.9% under setting [2]; 29.4% under setting [3]; 38.2% under setting [4]; 24.9% under setting [5]; 40.1% under setting [6]; 33% under setting [7]. For the same compound, the percent labeling is, setting by setting: under setting [9], 25.7%; under setting [10], 24.7%; under setting [11], 26.3%; under setting [12], 42.3%.
Take `O=C(NCCS)[C@]12CCC[C@H]1CN(Cc1ccccc1)C2`: the percent labeling is, setting by setting: under setting [1], 49.2%; under setting [2], 26.9%; under setting [3], 35.3%; under setting [4], 27.6%; under setting [5], 23.9%; under setting [6], 38.4%. Further, the percent labeling turned out to be 37% under setting [7]; 39.7% under setting [8]; 25.1% under setting [9]; 25.6% under setting [10]; 17.2% under setting [11]; 36.2% under setting [12].
As to `CN(CC1CCCCC1)C(=O)C(C)(C)NC(=O)CCS`, the percent labeling runs as follows: under setting [2], 13.5%; under setting [3], 45.3%; under setting [4], 40.5%; under setting [5], 34.4%; under setting [6], 42.7%; under setting [7], 33.2%. The percent labeling under setting [9] was determined as 34.9%, the percent labeling under setting [10] is 38.6%, the percent labeling under setting [11] was 35.9% and the percent labeling under setting [12] is 61.5%.
With `O=C(NCCS)C1CCN(C(=O)c2csc(-c3ccccc3)n2)CC1`, the percent labeling under setting [1] stood at 25.9%; the percent labeling under setting [2] was 13.6%; the percent labeling under setting [3] stood at 20.2%; the percent labeling under setting [4] is 16.3%; the percent labeling under setting [5] was found to be 13.6%; the percent labeling under setting [6] turned out to be 33.3%. In addition, the percent labeling by setting is: under setting [7], 27.1%; under setting [8], 30.9%; under setting [9], 14.8%; under setting [10], 15.2%; under setting [11], 49.9%; under setting [12], 22.7%.
As to `Cc1ccc(CNC(=O)CCS)c(-n2cc(Cl)cn2)n1`, the percent labeling reads like this: under setting [2], 11.5%; under setting [3], 29.8%; under setting [4], 35%; under setting [5], 23.7%; under setting [6], 33%; under setting [7], 20.6%. The percent labeling is, setting by setting: under setting [9], 18%; under setting [10], 25.7%; under setting [11], 23.2%; under setting [12], 45%.
In turn, `O=C(NCCS)c1cnc(-c2ccccc2)nc1` came in with a percent labeling under setting [1] of 8.8%; a percent labeling under setting [2] of 8.9%; a percent labeling under setting [3] of 7.4%; a percent labeling under setting [4] of 7.2%; a percent labeling under setting [5] of 8.6%; a percent labeling under setting [6] of 6.7%. The percent labeling came to 25.5% under setting [7]; 18.8% under setting [8]; 4.6% under setting [9]; 11.3% under setting [10]; 7.7% under setting [11]; 15.8% under setting [12].
